Whole data set: some 4,500 sequences, median “median log2 fold change of GCK-ALFA target abundance (FLAG IP / Myc IP barcode read proportion)” near 0.078, cut for the lowest 2% near -0.6. Some of the results follow.
B1: GBRAP_74_6553 (protein)
chain: SAALKKEIDAAAKAGDADKLIKLARKAVKEGDIDVAVHALGQLAKLAVKKAKAGDYDELDKLIDAIVEILEKVPDEALTDETWKAIAAAIKAAIEAEKAR
B2: GBRAP_160_3968 (protein)
chain: MEEVEKLKEEIDEIFDETIEMIEGESHEERLTIIRVAVGEVILLASESPLVSDETEEEIAKIGDELVATVEANPDLTEEEIKELIEEAREKIKEVIDKEF
B3: GBRAP_78_6640 (protein)
chain: SIKEKLEEALDLVDEAAKKALTLPEEISNELLYHLVDAASDIEEAIENGGDLEEVEEALKHVEEALKIIKKHNDPELEELKKLVEKAKELLKEVIKELKE
B4: GBRAP_160_4413 (protein)
chain: SALREEVARLFDELEAAALELREEGRREEAIAEVRVGAGEILLLVDEDPRVSDETAERVDAVLDALVATVEANPDMSPEELAALIAAARDEVLAILEEGL
B5: GBRAP_14_3883 (protein)
chain: EEKLQKALKEAEKKFEKALKEAKKAGLEEEAAKIEKKLKEELKKAKEKGDLAAAVIAVARATAELEGAIWMKTEGWSEAEAAAGVRTETANAEYEVDELK
B6: GBRAP_52_5965 (protein)
chain: MEEKMKELLDRALELLKAGDLEGAEKLLREIVETLNDEELELLGKVLVERIKESDLETAELLLELAILLADELEEAGRDERIASDLLGNAAAAAYALEQK
B7: GBRAP_128_3428 (protein)
chain: STEEIVEEVKELLEEMLTADEETQREIAEEIFDKIKEADLETAEKIAEVILEMLPKFTAEQLDILADVGREKLPELTPEKQEILAEVIVAALNRAEELEE
B8: GBRAP_184_5083 (protein)
chain: KVYEAHIEAETEEELLAKLDEVLEAAAKEKANLIVLVDAKGLDVELAVKLIERVGAAKAAGKVPEATIGFREEFTEEEVDRIVAAADAAGVRVVLPLKEE
B9: GBRAP_52_6270 (protein)
chain: MEEEAERLAEEFIRTALEGTEEEVKKFAKEVVETKSQELIALMLEIVVEKAEELDAEELERLLDAFLILEDELEKAGKDTLPAEDAAARLAKLHMEKLKE
B10: GBRAP_160_3972 (protein)
chain: SEEIEELKEEIEEIFEEAKELIEGETFEERLTIVRVAVGEVILLVDSSPLISDETEDEVAEIGDELVERLDANPELTEEEIKALIEEALERIKEVIEKDA
B11: GBRAP_160_4507 (protein)
chain: SEKYKEAAEVAKEAAEFIKEELETLSKEELAVVVAGEAGRVILEADELGVLSDEELDEFAKKSDELVKKILEGDEEEAKEAAKEAIKMFEELAKKLEKKA
B12: GBRAP_11_2708 (protein)
chain: KKEKILKLAEKAEELAKKIEKLIKEGPKKEELEKLLKEVKELAKEAKELGLDEAVVKTLEIAAEELKKAIEDPKTAKEHLKNALAAVRVAAGLILLEAEE
B13: GBRAP_57_6464 (protein)
chain: MSPLEKALEHFEKAIKLIEEGASLEEILEEVEKGLEELDHTLLLDILLLLDPSARSDLSREELRERLLELVRRYLEEKGREEALKALKLMAGQVEMALTE
B14: GBRAP_184_5126 (protein)
chain: TLVRRSVEGENAEELIEKARAVVEEAAAAGARLLLSVFAENMSVEEIIEVIKALGELKREHPQVEVILVVENELSEEEIDKVVKAADEAGVRVVLAIPEE
B15: GBRAP_160_4473 (protein)
chain: MEKVKKAAEDLRKDVEEELKKLADESPEQIATGAAVEVGSSLLEWSEKGLITDEQEDILAEAMDKILELGKTKKDASPEEIIKEIKKIVDEAVKKILESA
B16: GBRAP_35_5553 (protein)
chain: DFDKEVIEMVRATAEDLLLAVDDLPVDTLITMATQIAELTLKVAKDEKENKEELKELLEATLELLDAVIEKAEKEGAPEEDIEKLRKLKKELEEALKEAE
B17: GBRAP_35_5513 (protein)
chain: SSIDTETEMLVSTLEDATLAVEDLDPETLKKIVESLAELAREFILQNKNDLEALKRVKEELEKLAEALRKRGLDDPLIKEALEKVEEVIKLAEEEIKKIE
B18: GBRAP_150_3890 (protein)
chain: SLEELLTIADTALDILELDIESGGKTIDQTLKVVQALVDEAKNFSPELQKLAEEALKKVEEAKKLKEEGGDQKEIDKLLKEAKKKLEELIKLLEKKIKEK
B19: GBRAP_52_6338 (protein)
chain: MEEEIRKAAEEIADAVVAGDLDRAVELTREVAEKLSLEEVRKVALLTAELIAERLPDREDLAAEAIFRIADVIEEVLGDEELADEVEAHMARLLYERRLA

Each binder was assayed against GABARAP, O95166 (assay: median log2 fold change of GCK-ALFA target abundance (FLAG IP / Myc IP barcode read proportion) (log2 ratio); each designed protein is fused to an ALFA-tag nanobody in HEK293 cells to bring the named protein to FLAG-tagged glucokinase (GCK); Myc marks an untargeted standard; higher = target protein stabilised (more abundant)). Conditions: target protein: 3xFLAG-MCP-GCK-ALFA reporter; HEK293 landing pad (RPLP).
Sequence of GABARAP, O95166 (O95166 whole entry, the tested form may be a part): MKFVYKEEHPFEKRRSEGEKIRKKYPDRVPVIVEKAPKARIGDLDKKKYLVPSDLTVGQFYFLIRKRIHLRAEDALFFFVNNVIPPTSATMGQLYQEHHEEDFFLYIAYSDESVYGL
Procedure, shortened: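 An ALFA-nanobody-fused binder library was recombined into HEK293 landing-pad cells and induced with 2 μg mL^−1 doxycycline. Cells were transfected with a plasmid expressing a FLAG-tagged target and a Myc-tagged standard. After 48 h, lysates underwent anti-FLAG and anti-Myc immunoprecipitation, and circular RNA barcodes were reverse transcribed, amplified and sequenced. Target abundance is the per-binder median log2 ratio of FLAG to Myc barcode read proportions. Barcodes needed ≥10^−7 proportion in both replicates, binders ≥3 barcodes per replicate, and a 10^−6 pseudocount was added; the two replicates were pooled.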
B1 was tested, and the “median log2 fold change” value was -0.699. In the case of B2, the “median log2 fold change” value is reported as -0.456. With B3 the “median log2 fold change” value was 0.23. B4 was tested, and the “median log2 fold change” value was -0.253. In the case of B5, the “median log2 fold change” value is reported as 0.393. In the case of B6, the “median log2 fold change” value is reported as -0.409. With B7 the “median log2 fold change” value was 0.0458. For B8, the “median log2 fold change” value was 0.19. B9 was tested, and the “median log2 fold change” value was 0.16. B10 was tested, and the “median log2 fold change” value was -0.36. With B11 the “median log2 fold change” value was 0.142. B12 was tested, and the “median log2 fold change” value was 0.297. B13 was tested, and the “median log2 fold change” value was 0.249. In the case of B14, the “median log2 fold change” value is reported as -0.152. In the case of B15, the “median log2 fold change” value is reported as -0.0382. For B16, the “median log2 fold change” value was -0.742. In the case of B17, the “median log2 fold change” value is reported as 0.222. With B18 the “median log2 fold change” value was 0.232. For B19, the “median log2 fold change” value was -0.249.
